From ChEMBL document CHEMBL3797127, “Design, synthesis and evaluation of pyrrolo[2,3-d]pyrimidine-phenylamide hybrids as potent Janus kinase 2 inhibitors” (Bioorg Med Chem Lett, 2016)
pIC50: −log10 of the molar value.

Molecular target: T1, Tyrosine-protein kinase JAK2 (Homo sapiens, UniProt O60674)
T1 sequence (O60674 whole entry): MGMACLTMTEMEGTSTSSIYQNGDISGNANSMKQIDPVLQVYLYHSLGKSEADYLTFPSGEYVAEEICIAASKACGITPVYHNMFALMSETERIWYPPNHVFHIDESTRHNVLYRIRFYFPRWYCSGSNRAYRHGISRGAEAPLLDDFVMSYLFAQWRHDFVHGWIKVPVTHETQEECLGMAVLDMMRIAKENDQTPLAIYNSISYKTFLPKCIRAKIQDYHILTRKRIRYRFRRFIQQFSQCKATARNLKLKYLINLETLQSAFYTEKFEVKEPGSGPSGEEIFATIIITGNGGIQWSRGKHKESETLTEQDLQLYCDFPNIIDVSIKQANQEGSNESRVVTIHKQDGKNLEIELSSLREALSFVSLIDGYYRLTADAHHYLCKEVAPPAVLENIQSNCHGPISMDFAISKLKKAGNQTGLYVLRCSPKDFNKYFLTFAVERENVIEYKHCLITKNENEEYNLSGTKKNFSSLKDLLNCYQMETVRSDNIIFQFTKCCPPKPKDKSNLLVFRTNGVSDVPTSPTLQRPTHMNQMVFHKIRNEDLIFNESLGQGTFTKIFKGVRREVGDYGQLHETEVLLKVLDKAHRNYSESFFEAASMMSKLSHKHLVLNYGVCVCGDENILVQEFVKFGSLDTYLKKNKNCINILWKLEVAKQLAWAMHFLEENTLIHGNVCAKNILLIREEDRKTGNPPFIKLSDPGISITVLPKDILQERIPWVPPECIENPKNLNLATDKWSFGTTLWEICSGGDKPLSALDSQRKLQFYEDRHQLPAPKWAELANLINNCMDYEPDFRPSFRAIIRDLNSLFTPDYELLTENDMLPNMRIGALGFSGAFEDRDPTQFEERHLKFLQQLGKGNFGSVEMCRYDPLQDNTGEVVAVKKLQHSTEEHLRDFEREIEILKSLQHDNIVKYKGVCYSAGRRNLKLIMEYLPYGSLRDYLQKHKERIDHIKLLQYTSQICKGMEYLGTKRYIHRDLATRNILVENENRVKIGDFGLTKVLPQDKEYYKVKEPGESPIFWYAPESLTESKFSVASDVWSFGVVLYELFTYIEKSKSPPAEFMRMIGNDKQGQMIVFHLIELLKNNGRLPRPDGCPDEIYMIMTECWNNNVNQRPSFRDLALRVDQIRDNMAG

Compound | pIC50
CCC(=O)Nc1ccc(-c2ncnc3c2cc(C(=O)NCCCN2CCOCC2)n3C)cc1 | 7.64
Cn1c(C(=O)NCCN2CCCC2)cc2c(-c3ccc(NC(=O)c4ccc(C#N)cc4)cc3)ncnc21 | 7.39
C[C@H](NC(=O)OC(C)(C)C)C(=O)Nc1ccc(-c2ncnc3c2cc(C(N)=O)n3C)cc1 | 7.29
Cn1c(C(N)=O)cc2c(-c3ccc(NC(=O)C(C)(C)C)cc3)ncnc21 | 7.70
CCC(=O)Nc1ccc(-c2ncnc3c2cc(C(N)=O)n3C)cc1 | 7.01
Cn1c(C(=O)NCCCN2CCOCC2)cc2c(-c3ccc(NC(=O)c4ccccc4)cc3)ncnc21 | 7.03
Cn1c(C(=O)NCCN2CCCC2)cc2c(-c3ccc(NC(=O)[C@@H]4CCCN4C(=O)OC(C)(C)C)cc3)ncnc21 | 8.05
Cn1c(C(=O)NCCCN2CCOCC2)cc2c(-c3ccc(NC(=O)C(C)(C)C)cc3)ncnc21 | 8.22
CCC(=O)Nc1ccc(-c2ncnc3c2cc(C(=O)OCc2ccccc2)n3C)cc1 | 6.27
Cn1c(C(N)=O)cc2c(-c3ccc(NC(=O)[C@@H]4CCCN4C(=O)OC(C)(C)C)cc3)ncnc21 | 7.48
Cn1c(C(N)=O)cc2c(-c3ccc(NC(=O)c4ccccc4)cc3)ncnc21 | 6.04
Cn1c(C(=O)OCc2ccccc2)cc2c(-c3ccc(NC(=O)c4ccc(C#N)cc4)cc3)ncnc21 | < 6.00
CCC(=O)Nc1ccc(-c2ncnc3c2cc(C(=O)NCCN2CCCC2)n3C)cc1 | 7.17
Cn1c(C(=O)NCCN2CCCC2)cc2c(-c3ccc(NC(=O)C(C)(C)C)cc3)ncnc21 | 8.10
CC(=O)Nc1ccc(-c2ncnc3c2cc(C(=O)OCc2ccccc2)n3C)cc1 | 6.14

Continued, values first:

pIC50 | Compound
7.77 | C[C@H](NC(=O)OC(C)(C)C)C(=O)Nc1ccc(-c2ncnc3c2cc(C(=O)NCCCN2CCOCC2)n3C)cc1
6.74 | CC(=O)Nc1ccc(-c2ncnc3c2cc(C(N)=O)n3C)cc1
6.32 | C[C@H](NC(=O)OC(C)(C)C)C(=O)Nc1ccc(-c2ncnc3c2cc(C(=O)OCc2ccccc2)n3C)cc1
< 6.00 | Cn1c(C(=O)OCc2ccccc2)cc2c(-c3ccc(NC(=O)c4ccccc4)cc3)ncnc21
< 6.00 | Cn1c(C(=O)OCc2ccccc2)cc2c(-c3ccc(NC(=O)[C@@H]4CCCN4C(=O)OC(C)(C)C)cc3)ncnc21
7.09 | Cn1c(C(=O)NCCCN2CCOCC2)cc2c(-c3ccc(NC(=O)c4ccc(C#N)cc4)cc3)ncnc21
6.10 | Cn1c(C(=O)OCc2ccccc2)cc2c(-c3ccc(NC(=O)C(C)(C)C)cc3)ncnc21
8.00 | Cn1c(C(=O)NCCCN2CCOCC2)cc2c(-c3ccc(NC(=O)[C@@H]4CCCN4C(=O)OC(C)(C)C)cc3)ncnc21
7.44 | CC(=O)Nc1ccc(-c2ncnc3c2cc(C(=O)NCCCN2CCOCC2)n3C)cc1
< 6.00 | Cn1c(C(N)=O)cc2c(-c3ccc(NC(=O)c4ccc(C#N)cc4)cc3)ncnc21
6.81 | CC(=O)Nc1ccc(-c2ncnc3c2cc(C(=O)NCCN2CCCC2)n3C)cc1
7.11 | Cn1c(C(=O)NCCN2CCCC2)cc2c(-c3ccc(NC(=O)c4ccccc4)cc3)ncnc21
7.68 | C[C@H](NC(=O)OC(C)(C)C)C(=O)Nc1ccc(-c2ncnc3c2cc(C(=O)NCCN2CCCC2)n3C)cc1

Molecular target: T1, Tyrosine-protein kinase JAK2
Assay type: cell-based, TF-1
Remark: another data set of the same source

Compound | pIC50
CCC(=O)Nc1ccc(-c2ncnc3c2cc(C(=O)NCCCN2CCOCC2)n3C)cc1 | < 4.70
Cn1c(C(=O)NCCN2CCCC2)cc2c(-c3ccc(NC(=O)c4ccc(C#N)cc4)cc3)ncnc21 | 4.76
C[C@H](NC(=O)OC(C)(C)C)C(=O)Nc1ccc(-c2ncnc3c2cc(C(N)=O)n3C)cc1 | 5.32
Cn1c(C(N)=O)cc2c(-c3ccc(NC(=O)C(C)(C)C)cc3)ncnc21 | 6.04
CCC(=O)Nc1ccc(-c2ncnc3c2cc(C(N)=O)n3C)cc1 | 4.80
Cn1c(C(=O)NCCN2CCCC2)cc2c(-c3ccc(NC(=O)[C@@H]4CCCN4C(=O)OC(C)(C)C)cc3)ncnc21 | 6.28
Cn1c(C(=O)NCCCN2CCOCC2)cc2c(-c3ccc(NC(=O)C(C)(C)C)cc3)ncnc21 | 6.85
Cn1c(C(N)=O)cc2c(-c3ccc(NC(=O)[C@@H]4CCCN4C(=O)OC(C)(C)C)cc3)ncnc21 | 5.92
Cn1c(C(N)=O)cc2c(-c3ccc(NC(=O)c4ccccc4)cc3)ncnc21 | < 4.70
CCC(=O)Nc1ccc(-c2ncnc3c2cc(C(=O)NCCN2CCCC2)n3C)cc1 | 5.54
Cn1c(C(=O)NCCN2CCCC2)cc2c(-c3ccc(NC(=O)C(C)(C)C)cc3)ncnc21 | 6.52

Next, values leading:

pIC50 | Compound
5.03 | C[C@H](NC(=O)OC(C)(C)C)C(=O)Nc1ccc(-c2ncnc3c2cc(C(=O)NCCCN2CCOCC2)n3C)cc1
< 4.70 | CC(=O)Nc1ccc(-c2ncnc3c2cc(C(N)=O)n3C)cc1
< 4.70 | C[C@H](NC(=O)OC(C)(C)C)C(=O)Nc1ccc(-c2ncnc3c2cc(C(=O)OCc2ccccc2)n3C)cc1
< 4.70 | Cn1c(C(=O)OCc2ccccc2)cc2c(-c3ccc(NC(=O)[C@@H]4CCCN4C(=O)OC(C)(C)C)cc3)ncnc21
< 4.70 | Cn1c(C(=O)NCCCN2CCOCC2)cc2c(-c3ccc(NC(=O)c4ccc(C#N)cc4)cc3)ncnc21
6.57 | Cn1c(C(=O)NCCCN2CCOCC2)cc2c(-c3ccc(NC(=O)[C@@H]4CCCN4C(=O)OC(C)(C)C)cc3)ncnc21
5.02 | CC(=O)Nc1ccc(-c2ncnc3c2cc(C(=O)NCCCN2CCOCC2)n3C)cc1
5.37 | CC(=O)Nc1ccc(-c2ncnc3c2cc(C(=O)NCCN2CCCC2)n3C)cc1
5.85 | C[C@H](NC(=O)OC(C)(C)C)C(=O)Nc1ccc(-c2ncnc3c2cc(C(=O)NCCN2CCCC2)n3C)cc1
